# Reference: the supplement of paper PMC10369915
# This is one part of the list. Rule as the data show it: active = 3.2 or more and inactive = the rest. Most of these values are background signal.
# Legend:
# Assay in all cases: enrichment score (SH2-bound / input frequency) (ratio); bacterial display of known human phosphotyrosine sites (pTyr-Var adds point mutants) read by sequencing; higher = stronger binding; tyrosines were phosphorylated by kinases first
# Conditions in all cases: peptide library: pTyr-Var
# SHP2 C-SH2 domain E139D = biological target: SHP2 C-SH2 domain E139D
# [1] = biological target: SHP2 C-SH2 domain wild-type
# SHP2 N-SH2 domain L43F = biological target: SHP2 N-SH2 domain L43F
# SHP2 N-SH2 domain T42A = biological target: SHP2 N-SH2 domain T42A
# SHP2 N-SH2 domain T52S = biological target: SHP2 N-SH2 domain T52S
# [2] = biological target: SHP2 N-SH2 domain wild-type
# 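Also: displayed peptides selected on beads carrying the immobilized SH2 domain, with library peptides lacking any tyrosine serving as negative controls.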
Binder,enrichment score (SHP2 C-SH2 domain E139D),enrichment score [1],enrichment score (SHP2 N-SH2 domain L43F),enrichment score (SHP2 N-SH2 domain T42A),enrichment score (SHP2 N-SH2 domain T52S),enrichment score [2]
FPCSVYVPDEW [INSR_Y1011],inactive: 1.01,inactive: 1.19,inactive: 1.32,inactive: 1.17,inactive: 1.26,inactive: 1.33
GDPTEYFITAI [IGSF22_Y501_S503I_YF],inactive: 0.516,inactive: 0.616,inactive: 0.387,inactive: 0.45,inactive: 0.601,inactive: 0.69
FSNPAYFVLEG [INPPL1_Y986_N982S_YF],inactive: 1.19,inactive: 1.7,inactive: 0.989,inactive: 1.15,inactive: 1.1,inactive: 1.13
IGGHAYGDQFR [IDH1_Y135_R132G_YF],inactive: 0.855,inactive: 0.865,inactive: 0.68,inactive: 0.795,inactive: 0.599,inactive: 0.99
YQLENCCNGGG [INS_Y108_Y108C],inactive: 1,inactive: 0.929,inactive: 0.733,inactive: 0.653,inactive: 0.821,inactive: 0.925
LMLVLYGRIFR [HTR1A_Y215],inactive: 1.3,inactive: 1.23,inactive: 1.32,inactive: 1.02,inactive: 1.47,inactive: 0.855
ARTNEYKIIRT [INA_Y87],inactive: 0.692,inactive: 0.688,inactive: 0.527,inactive: 0.459,inactive: 0.546,inactive: 0.508
PPTFRYERGSR [INPPL1_Y663_YF],inactive: 0.249,inactive: 0.271,inactive: 0.219,inactive: 0.226,inactive: 0.237,inactive: 0.201
HTEGEYSSLEH [IDH3B_Y171_Q166H],inactive: 0.387,inactive: 0.394,inactive: 0.359,inactive: 0.31,inactive: 0.306,inactive: 0.397
FETDFYQKGGK [INSR_Y1190_R1191Q_YF],inactive: 0.751,inactive: 0.454,inactive: 0.641,inactive: 0.618,inactive: 0.619,inactive: 0.667
LICRRYLVMQR [IL3RA_Y328_V323L],inactive: 0.277,inactive: 0.25,inactive: 0.406,inactive: 0.429,inactive: 0.284,inactive: 0.379
SFPSTYRYERG [INPPL1_Y661_P659S],inactive: 0.74,inactive: 0.678,inactive: 0.69,inactive: 0.589,inactive: 0.773,inactive: 0.582
FSNPAYYVLEG [INPPL1_Y986_N982S],inactive: 1.15,inactive: 1.18,inactive: 1.06,inactive: 0.88,inactive: 1.22,inactive: 1.09
SNPAFYVLEGV [INPPL1_Y987_N982S_YF],inactive: 0.933,inactive: 0.816,inactive: 0.938,inactive: 0.759,inactive: 0.74,inactive: 0.827
TFFQMYDKGLV [IARS2_Y231_YF],inactive: 1.41,inactive: 1.33,inactive: 1.01,inactive: 1.08,inactive: 1.27,inactive: 1.01
HIPFRYPKEFQ [IDS_Y234],inactive: 1.34,inactive: 1.6,inactive: 1.55,inactive: 1.4,inactive: 1.58,inactive: 0.752
IGGHAYGDQYR [IDH1_Y135_R132G],inactive: 0.669,inactive: 0.555,inactive: 0.704,inactive: 0.525,inactive: 0.729,inactive: 0.719
DERQPYAHMNG [IGF1R_Y1346],inactive: 0.597,inactive: 0.581,inactive: 0.581,inactive: 0.569,inactive: 0.551,inactive: 0.804
FLAVGDHKPHI [IDS_Y225_Y225D],inactive: 1.2,inactive: 1.38,inactive: 1.24,inactive: 1.13,inactive: 1.22,inactive: 1.12

Binder,enrichment score (SHP2 C-SH2 domain E139D),enrichment score [1],enrichment score (SHP2 N-SH2 domain L43F),enrichment score (SHP2 N-SH2 domain T42A),enrichment score (SHP2 N-SH2 domain T52S),enrichment score [2]
APTSGYREFVH [IL4R_Y575_Q576R],inactive: 0.811,inactive: 0.555,inactive: 0.728,inactive: 0.562,inactive: 0.687,inactive: 0.69
HNGVSYYINLC [IGF2R_Y2024],inactive: 0.899,inactive: 1.4,inactive: 0.728,inactive: 0.535,inactive: 0.464,inactive: 1.62
PSTFRYERGSR [INPPL1_Y663_P659S_YF],inactive: 0.409,inactive: 0.319,inactive: 0.337,inactive: 0.403,inactive: 0.371,inactive: 0.405
DSGKLYALDVL [INO80_Y1104],inactive: 0.729,inactive: 0.657,inactive: 0.706,inactive: 0.696,inactive: 0.675,inactive: 0.829
RIDPDYMGRVR [IGSF9_Y81_V82M],inactive: 0.732,inactive: 0.853,inactive: 0.605,inactive: 0.495,inactive: 0.837,inactive: 0.732
FTFDPYSEEEP [IL2RB_Y387_D391E_YF],inactive: 0.912,inactive: 0.781,inactive: 0.795,inactive: 0.915,inactive: 0.914,inactive: 0.891
HNGVSYFINLC [IGF2R_Y2024_YF],inactive: 0.784,inactive: 0.936,inactive: 0.828,inactive: 0.819,inactive: 0.524,inactive: 1.18
IALNSYHSRNC [IFNGR1_Y397],inactive: 0.928,inactive: 1.22,inactive: 1.18,inactive: 1.08,inactive: 0.845,inactive: 1.06
YETDYYRKGGK [INSR_Y1190],inactive: 0.485,inactive: 0.567,inactive: 0.45,inactive: 0.516,inactive: 0.555,inactive: 0.629
KFVVVYFRETD [IL17RB_Y447_I451T_YF],active: 4.11,inactive: 2.96,active: 3.36,inactive: 3,active: 3.68,inactive: 2.64
FLAVGYHKTHI [IDS_Y225_P228T],active: 3.26,inactive: 3.17,inactive: 2.3,inactive: 2.04,inactive: 2.89,inactive: 2.7
DSGKLYALDGL [INO80_Y1104_V1108G],inactive: 0.694,inactive: 0.825,inactive: 0.736,inactive: 0.719,inactive: 0.87,inactive: 0.818
ITRDIYETDYY [INSR_Y1185_M1180I],inactive: 0.948,inactive: 0.718,inactive: 0.797,inactive: 0.636,inactive: 0.729,inactive: 0.875
FTFDPYSEEDP [IL2RB_Y387_YF],inactive: 0.855,inactive: 0.833,inactive: 0.889,inactive: 0.826,inactive: 0.832,inactive: 0.852
IRTIDYRFTVS [IDS_Y497_W502S_YF],inactive: 1.84,inactive: 1.66,inactive: 1.94,inactive: 1.71,inactive: 1.89,inactive: 1.6
KNILCYIQGGS [HYDIN_Y4610],inactive: 0.849,inactive: 1.19,inactive: 0.824,inactive: 0.62,inactive: 0.732,inactive: 0.998
FLNSSYINIST [IL23R_Y178_T175N_YF],inactive: 2.47,inactive: 2.88,inactive: 3.07,active: 9.47,inactive: 2.89,inactive: 2.64
IGRHAYGDQYR [IDH1_Y135],inactive: 0.966,inactive: 0.909,inactive: 0.836,inactive: 0.716,inactive: 0.897,inactive: 0.953
